{"source": "the supplement of paper PMC8728848", "test_in_all_cases": "glycan array binding signal (z-score within array); higher = stronger binding", "conditions_in_all_cases": "glycan notation: IUPAC condensed, linker removed", "key": {"[1]": {"target": "Gal(b1-4)GlcNAc(b1-3)Gal(b1-4)GlcNAc(b1-6)[Gal(b1-3)]GalNAc", "in_short": "(§1)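 From the Consortium for Functional Glycomics database, 3228 arrays were curated, keeping only those whose protein sequence was available. Binding is given as a within-array Z-score averaged across arrays sharing a protein sequence and across linkers. Negative Z-scores can be read as non-binding.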"}, "[2]": {"target": "Gal(b1-4)GlcNAc(b1-3)Gal(b1-4)[Fuc(a1-3)]GlcNAc(b1-3)Gal(b1-4)[Fuc(a1-3)]GlcNAc", "in_short": "as §1"}, "[3]": {"target": "Gal(b1-4)GlcNAc(b1-3)GalNAc", "in_short": "as §1"}, "[4]": {"target": "Gal(b1-4)GlcNAc(b1-3)[Fuc(a1-3)GlcNAc(b1-6)]Gal(b1-4)Glc", "in_short": "as §1"}, "[5]": {"target": "Gal(b1-4)GlcNAc(b1-3)[Gal(b1-4)GlcNAc(b1-6)]Gal(b1-4)GlcNAc", "in_short": "as §1"}, "[6]": {"target": "Gal(b1-4)GlcNAc(b1-3)[GlcNAc(b1-6)]Gal(b1-4)GlcNAc", "in_short": "as §1"}, "[7]": {"target": "Gal(b1-4)GlcNAc(b1-6)Gal(b1-4)GlcNAc", "in_short": "as §1"}, "[8]": {"target": "Gal(b1-4)GlcNAc(b1-6)GalNAc", "in_short": "as §1"}, "[9]": {"target": "Gal(b1-4)GlcNAc(b1-6)[Gal(b1-3)]GalNAc", "in_short": "as §1"}, "[10]": {"target": "Gal(b1-4)GlcNAc(b1-6)[Gal(b1-4)GlcNAc(b1-3)]GalNAc", "in_short": "as §1"}, "Gal(b1-4)GlcNAc6P": {"target": "Gal(b1-4)GlcNAc6P", "in_short": "as §1"}, "Gal(b1-6)Gal": {"target": "Gal(b1-6)Gal", "in_short": "as §1"}, "Gal3S(b1-3)GalNAc": {"target": "Gal3S(b1-3)GalNAc", "in_short": "as §1"}, "Gal3S(b1-3)GlcNAc": {"target": "Gal3S(b1-3)GlcNAc", "in_short": "as §1"}, "[11]": {"target": "Gal3S(b1-3)[Fuc(a1-4)]GlcNAc", "in_short": "as §1"}, "Gal3S(b1-4)Glc": {"target": "Gal3S(b1-4)Glc", "in_short": "as §1"}, "Gal3S(b1-4)Glc6S": {"target": "Gal3S(b1-4)Glc6S", "in_short": "as §1"}, "Gal3S(b1-4)GlcNAc": {"target": "Gal3S(b1-4)GlcNAc", "in_short": "as §1"}, "[12]": {"target": "Gal3S(b1-4)[Fuc(a1-3)]Glc6S", "in_short": "as §1"}, "[13]": {"target": "Gal3S(b1-4)[Fuc(a1-3)]GlcNAc", "in_short": "as §1"}, "[14]": {"target": "Gal3S(b1-4)[Fuc(a1-3)]GlcNAc6S", "in_short": "as §1"}, "Gal3S4S(b1-4)GlcNAc": {"target": "Gal3S4S(b1-4)GlcNAc", "in_short": "as §1"}, "Gal3S6S(b1-4)GlcNAc": {"target": "Gal3S6S(b1-4)GlcNAc", "in_short": "as §1"}, "Gal3S6S(b1-4)GlcNAc6S": {"target": "Gal3S6S(b1-4)GlcNAc6S", "in_short": "as §1"}, "Gal4S(b1-4)GlcNAc": {"target": "Gal4S(b1-4)GlcNAc", "in_short": "as §1"}, "Gal4S6S(b1-4)GlcNAc": {"target": "Gal4S6S(b1-4)GlcNAc", "in_short": "as §1"}, "Gal6P(b1-4)GlcNAc": {"target": "Gal6P(b1-4)GlcNAc", "in_short": "as §1"}, "Gal6S(b1-3)GlcNAc": {"target": "Gal6S(b1-3)GlcNAc", "in_short": "as §1"}, "Gal6S(b1-3)GlcNAc6S": {"target": "Gal6S(b1-3)GlcNAc6S", "in_short": "as §1"}, "Gal6S(b1-4)Glc": {"target": "Gal6S(b1-4)Glc", "in_short": "as §1"}, "Gal6S(b1-4)Glc6S": {"target": "Gal6S(b1-4)Glc6S", "in_short": "as §1"}, "Gal6S(b1-4)GlcNAc": {"target": "Gal6S(b1-4)GlcNAc", "in_short": "as §1"}, "Gal6S(b1-4)GlcNAc6S": {"target": "Gal6S(b1-4)GlcNAc6S", "in_short": "as §1"}, "GalNAc(a1-3)Gal": {"target": "GalNAc(a1-3)Gal", "in_short": "as §1"}, "GalNAc(a1-3)GalNAc": {"target": "GalNAc(a1-3)GalNAc", "in_short": "as §1"}, "[15]": {"target": "GalNAc(a1-3)GalNAc(b1-3)Gal(a1-4)Gal(b1-4)Glc", "in_short": "as §1"}, "[16]": {"target": "GalNAc(a1-3)GalNAc(b1-3)Gal(a1-4)Gal(b1-4)GlcNAc", "in_short": "as §1"}}, "note": "Some of the results follow.", "data": [{"binder": "PX14343B-bfa-546-20-546 (Bacteroides fragilis) (protein) CDLERYPLTDLSEETFWNSESNAELALTSLYRGSLTDGVEYNPSDWWSYHGMIMMEHLSDNAFDRRGENNPFFKISSGNLTADNAFIKRYWETSYKRIGYCNRFLVGIQNSSESEKKTRMIAEARFLRATQYFYLASYFKNVPLVENVLTGEEANNVTKTSQADILKWCVTEFTAAAADLPRFSAIPAGEAGRACKQAALAFLGRTCMLQKDWKSGAKAFHDIMELGDNAINANYQELFYPSTGTSNKENIFYIQYLENYLGTGLPQHALSAKDGGWSLVNPAADLYESYEFKDGTPFSYDDPRYDPSNLGKDRDPRLDYTIYYNGAIFMGTEYKMSPDYSAAKKEKLDYTSEASRTGFMMRKYFEESTPINDVQSANGLTPVIRYAEVLLGYLECLVEDNQTITQGILDETINAVRGRASVNMPPVTEVTPAKLREIVRHERRIELAMEGIRYWDIMRWGIAHEVLSQKIWGAPYPGSTQYATTTKEVDPTGNYRWYVGKRAFRNPTDYTWPIPQSEQNINPNLRD", "values": [{"measurement": "glycan array binding signal (z-score)", "setting": "[1]", "result": -0.133}, {"measurement": "glycan array binding signal (z-score)", "setting": "[2]", "result": -0.13}, {"measurement": "glycan array binding signal (z-score)", "setting": "[3]", "result": -0.124}, {"measurement": "glycan array binding signal (z-score)", "setting": "[4]", "result": -0.123}, {"measurement": "glycan array binding signal (z-score)", "setting": "[5]", "result": -0.123}, {"measurement": "glycan array binding signal (z-score)", "setting": "[6]", "result": -0.121}, {"measurement": "glycan array binding signal (z-score)", "setting": "[7]", "result": -0.116}, {"measurement": "glycan array binding signal (z-score)", "setting": "[8]", "result": -0.116}, {"measurement": "glycan array binding signal (z-score)", "setting": "[9]", "result": -0.129}, {"measurement": "glycan array binding signal (z-score)", "setting": "[10]", "result": -0.113}, {"measurement": "glycan array binding signal (z-score)", "setting": "Gal(b1-4)GlcNAc6P", "result": -0.129}, {"measurement": "glycan array binding signal (z-score)", "setting": "Gal(b1-6)Gal", "result": -0.12}, {"measurement": "glycan array binding signal (z-score)", "setting": "Gal3S(b1-3)GalNAc", "result": -0.132}, {"measurement": "glycan array binding signal (z-score)", "setting": "Gal3S(b1-3)GlcNAc", "result": -0.117}, {"measurement": "glycan array binding signal (z-score)", "setting": "[11]", "result": -0.117}, {"measurement": "glycan array binding signal (z-score)", "setting": "Gal3S(b1-4)Glc", "result": -0.116}, {"measurement": "glycan array binding signal (z-score)", "setting": "Gal3S(b1-4)Glc6S", "result": -0.129}, {"measurement": "glycan array binding signal (z-score)", "setting": "Gal3S(b1-4)GlcNAc", "result": -0.124}, {"measurement": "glycan array binding signal (z-score)", "setting": "[12]", "result": -0.116}, {"measurement": "glycan array binding signal (z-score)", "setting": "[13]", "result": -0.12}, {"measurement": "glycan array binding signal (z-score)", "setting": "[14]", "result": -0.121}, {"measurement": "glycan array binding signal (z-score)", "setting": "Gal3S4S(b1-4)GlcNAc", "result": -0.124}, {"measurement": "glycan array binding signal (z-score)", "setting": "Gal3S6S(b1-4)GlcNAc", "result": -0.119}, {"measurement": "glycan array binding signal (z-score)", "setting": "Gal3S6S(b1-4)GlcNAc6S", "result": -0.109}, {"measurement": "glycan array binding signal (z-score)", "setting": "Gal4S(b1-4)GlcNAc", "result": -0.114}, {"measurement": "glycan array binding signal (z-score)", "setting": "Gal4S6S(b1-4)GlcNAc", "result": -0.12}, {"measurement": "glycan array binding signal (z-score)", "setting": "Gal6P(b1-4)GlcNAc", "result": -0.106}, {"measurement": "glycan array binding signal (z-score)", "setting": "Gal6S(b1-3)GlcNAc", "result": 9.99}, {"measurement": "glycan array binding signal (z-score)", "setting": "Gal6S(b1-3)GlcNAc6S", "result": 6.09}, {"measurement": "glycan array binding signal (z-score)", "setting": "Gal6S(b1-4)Glc", "result": 1.73}, {"measurement": "glycan array binding signal (z-score)", "setting": "Gal6S(b1-4)Glc6S", "result": 3.07}, {"measurement": "glycan array binding signal (z-score)", "setting": "Gal6S(b1-4)GlcNAc", "result": 9.6}, {"measurement": "glycan array binding signal (z-score)", "setting": "Gal6S(b1-4)GlcNAc6S", "result": 13.3}, {"measurement": "glycan array binding signal (z-score)", "setting": "GalNAc(a1-3)Gal", "result": -0.126}, {"measurement": "glycan array binding signal (z-score)", "setting": "GalNAc(a1-3)GalNAc", "result": -0.128}, {"measurement": "glycan array binding signal (z-score)", "setting": "[15]", "result": -0.122}, {"measurement": "glycan array binding signal (z-score)", "setting": "[16]", "result": -0.129}]}]}
